Assay results taken from article PMC4336329 (PLoS ONE, 2015).
Among all 310,000 compounds or so, about 14,000 (4.5%) showed an effect of 50% or more. The effect is printed as a negative number. Some of the results follow.

Each compound was assayed against human ether-à-go-go-related gene (hERG) potassium channel (human, UniProt Q12809) (assay: primary screen, population patch clamp on CHO cells stably expressing hERG).
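Further: peak tail current of the secondary pulse compared with the same well before compound.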

human ether-à-go-go-related gene (hERG) potassium channel, sequence (Q12809 whole entry, looked up): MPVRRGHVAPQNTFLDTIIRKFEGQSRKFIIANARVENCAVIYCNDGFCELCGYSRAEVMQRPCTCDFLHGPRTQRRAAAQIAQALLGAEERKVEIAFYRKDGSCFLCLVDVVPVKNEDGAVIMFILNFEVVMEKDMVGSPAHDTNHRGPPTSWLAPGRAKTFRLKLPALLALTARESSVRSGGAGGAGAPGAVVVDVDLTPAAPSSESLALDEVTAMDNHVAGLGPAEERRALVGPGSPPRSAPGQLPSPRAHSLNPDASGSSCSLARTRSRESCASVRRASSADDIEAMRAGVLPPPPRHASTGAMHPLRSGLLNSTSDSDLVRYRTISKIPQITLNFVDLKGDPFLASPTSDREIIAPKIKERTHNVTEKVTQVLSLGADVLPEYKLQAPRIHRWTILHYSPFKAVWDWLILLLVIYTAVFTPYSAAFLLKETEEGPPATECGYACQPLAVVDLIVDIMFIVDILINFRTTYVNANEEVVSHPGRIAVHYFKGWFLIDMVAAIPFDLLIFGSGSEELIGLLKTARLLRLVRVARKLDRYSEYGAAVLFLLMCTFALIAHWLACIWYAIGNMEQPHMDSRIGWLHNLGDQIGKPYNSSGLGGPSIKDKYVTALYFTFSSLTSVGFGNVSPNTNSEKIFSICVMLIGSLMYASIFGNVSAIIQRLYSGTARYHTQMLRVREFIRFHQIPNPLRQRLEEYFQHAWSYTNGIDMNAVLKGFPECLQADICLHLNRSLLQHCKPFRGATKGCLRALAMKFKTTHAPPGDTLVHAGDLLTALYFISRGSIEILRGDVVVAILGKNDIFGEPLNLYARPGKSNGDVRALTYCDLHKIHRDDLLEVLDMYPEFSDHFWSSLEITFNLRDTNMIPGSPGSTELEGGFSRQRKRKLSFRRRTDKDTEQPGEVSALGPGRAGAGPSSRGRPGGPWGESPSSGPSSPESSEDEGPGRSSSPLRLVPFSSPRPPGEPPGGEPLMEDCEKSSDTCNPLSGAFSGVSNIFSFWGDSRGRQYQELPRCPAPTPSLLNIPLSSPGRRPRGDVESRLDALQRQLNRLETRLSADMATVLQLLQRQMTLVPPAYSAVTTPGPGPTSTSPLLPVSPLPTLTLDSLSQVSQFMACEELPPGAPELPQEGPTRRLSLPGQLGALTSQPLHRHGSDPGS

SMILES	hERG current change (%, negative = inhibition) at 10uM [%]
COc1ccccc1NC(=O)C1=C(C)N(c2ccccc2)C(=S)NC1c1cccc(C(F)(F)F)c1 (centres unmarked)	-7.7
Cc1ccc(S(=O)(=O)CCC(=O)OCC(=O)Nc2ccc(N3CCOCC3)cc2)cc1	5.62
O=C(C1CC12CCCC2)N1CCC(CO)(Cc2ccccc2Cl)CC1 (centres unmarked)	-10.4
O=C(O)c1cccc(S(=O)(=O)Nc2cccc(S(=O)(=O)N3CCCCCC3)c2)c1	22.6
O=C(OCc1nc(-c2ccccc2Cl)no1)c1ccco1	8.73
Cc1ccc(-c2nn3c(C)nnc3s2)cc1NC(=O)c1ccc(Br)o1	-14.4
CCCn1c(CCC(=O)O)nc2cc(S(=O)(=O)N3CCCC3)ccc21	12.1
CC1=CC(C)(C)Nc2ccc(OC(=O)CN3C(=O)c4cccc5cccc(c45)C3=O)cc21	-0.811
CCCC(C(=O)c1ccccc1)n1cncn1 (centres unmarked)	18.8
CC(C)C(C(=O)NCc1ccco1)N(CC1CCCO1)C(=O)CNS(=O)(=O)c1ccccc1 (centres unmarked)	1.79
Cc1cc(C)nc(SCc2nnc(SCC(=O)Nc3ccc(Cl)c(C(F)(F)F)c3)o2)n1	6.31
O=S(=O)(Nc1cccc(-n2cnnn2)c1)c1cccc(Cl)c1	16.2
COc1ccccc1N(CC(=O)N/N=C/c1ccccc1C(=O)O)S(C)(=O)=O	16.3
COc1ccc(NS(=O)(=O)c2ccc(O)c(C(=O)OCC(=O)NC3CCCCC3)c2)cc1	7.23
COc1ccc(NC(=O)c2cccnc2Sc2ccccc2)c(OC)c1	7.52
COc1cc(C(=O)NC(c2ccccc2)c2ccccc2)cc(OC)c1OC	-16.6
Cc1cccc(NC(=O)c2cc([N+](=O)[O-])ccc2N2CCCCC2)n1	-35.1
Cc1ccc(Nc2nc(Oc3ccc(OCc4ccccc4)nn3)nc(N3CCOCC3)n2)cc1	3.53
COc1ccc(-c2nc(C)sc2CC(=O)O)cc1OC	17.4
N#Cc1cc([N+](=O)[O-])ccc1NCC1CCCO1 (centres unmarked)	-8.37
Cc1cnc(NC(=O)c2cc3c(C)nn(Cc4ccccc4Cl)c3s2)s1	7.55
COc1cc2c(cc1OC)C(C)N(C(=O)CCN1C(=O)C3C4C=CC(C4)C3C1=O)CC2 (centres unmarked)	16

SMILES	hERG current change (%, negative = inhibition) at 10uM [%]
Cl.O=C(NCCCn1ccnc1)c1ccc(S(=O)(=O)N2CCCCCC2)cc1	-7.07
CC(NC(=O)c1cccs1)C1CCCO1 (centres unmarked)	5.46
CC(C)OCCCNC(=S)NNC(=O)C(c1ccccc1)c1ccccc1	13.3
C/C=C(/C)C(=O)Nc1cccc(C2=NOC3(C2)C[C@@H](C(N)=O)N(C(=O)CCCCC)C3)c1 (some centres unmarked)	-40.1
CN1CCN(/N=C/c2ccc(N(C)c3ccccc3)cc2)CC1	-10.7
O=C(CNC(=O)c1ccccc1)NCC(=O)OCC(=O)c1ccc(F)cc1	-1.77
CN(C)c1cccc(/C=C(\C#N)c2ccccc2)c1	18.5
CCC(Sc1nnc(-c2ccc(C)c(Cl)c2)n1CC)C(=O)Nc1nccs1 (centres unmarked)	-20.6
CCOC(=O)C(NC(=O)c1ccccc1)=C(C)C	7.07
S=C(Nc1ccccc1Cl)NC1CC2CCCC(C1)N2C1CC1 (centres unmarked)	-23.8
COc1cccc(OC)c1C(=O)NCCN1CCN(C(=O)c2c(OC)cccc2OC)CC1	6.88
CC1CCN(C(=S)NC(=O)c2ccccc2)CC1	-33.4
CCOc1ccc(OCC)c(NC(=O)CCNS(=O)(=O)c2cc(Br)cnc2N)c1	-8.95
O=C(Nc1ccc(S(=O)(=O)N2CCCC2)cc1)C1CC(=O)N(c2ccccc2)C1 (centres unmarked)	33.9
O=C(NC(=S)N1CCCC1)c1ccc(Cl)cc1	15.8
COc1ccc(S(=O)(=O)N2CCC3(CC2)OCCN3S(=O)(=O)c2cccs2)cc1OC	-23.2
O=C(CSc1nc2sc3c(c2c(=O)n1-c1ccccc1)CCCC3)N/N=C/c1ccc(C(=O)O)cc1	5.26
COc1cc(/C=C/C(=O)OCC(=O)Nc2c(C)n(C)n(-c3ccccc3)c2=O)cc(OC)c1OC	7.25
CCCCNCCCOc1ccc(C)cc1Br.O=C(O)C(=O)O	-35
O=C(Oc1cccc([N+](=O)[O-])c1)N1CCCCC1	-0.619
O=C(NCCc1ccccc1)C(=O)NCC1CCCO1 (centres unmarked)	-0.491
O=C(NCCN1CCOCC1)c1cc2cc([N+](=O)[O-])ccc2s1	-63.3

SMILES	hERG current change (%, negative = inhibition) at 10uM [%]
CN1C(=S)SC(/[N+]([O-])=C/c2cccnc2)C1(C)C (centres unmarked)	-0.033
CC(NC(=O)CCl)c1ccc(Cl)c(Cl)c1 (centres unmarked)	-2.59
COc1ccc2nc(SCC(=O)Nc3ccc(S(=O)(=O)N4CCCC4)cc3)c(C#N)cc2c1	-10.3
O=C(COC(=O)/C=C/c1ccc([N+](=O)[O-])cc1)NCc1ccccc1	2.07
C[C@@H]1CC[C@@]2(O[C@@H](CCO)C[C@@H](O)[C@@H]2O)O1	18.6
COc1cccc(/C=C/C(=O)N(C)CC(=O)Nc2ccc(Cl)c(C(F)(F)F)c2)c1	17.1
O=C(NN/C(=N/S(=O)(=O)c1ccc(Cl)cc1)c1ccccc1)c1ccc(O)cc1	21.6
Clc1ccccc1-c1ccc(/C=N/n2cnnc2)o1	-24.1
COc1cc(CNC(=O)C2CCCN2S(=O)(=O)c2ccccc2)cc(OC)c1OC (centres unmarked)	11
CCCCC(C(=O)O)C(C)CC(=O)Nc1ccn(-c2ccccc2)n1 (centres unmarked)	12.1
CCCN(CCC)c1ncnc2c1cnn2-c1ccc(OC)cc1	-6.18
CC1CC(C)CN(CC(=O)NC(c2ccccc2)c2ccccc2)C1.O=C(O)C(=O)O (centres unmarked)	-68.4
COc1cccc(NC(=O)CSc2nnc(NC(=O)c3ccco3)s2)c1	2.95
Clc1ccccc1-c1nnn(Cc2ccc(-c3nn[nH]n3)cc2)n1	9.34
Br.COc1cc(NS(=O)(=O)c2ccc(Nc3nc(-c4cccc([N+](=O)[O-])c4)cs3)cc2)nc(OC)n1	-21.1
NS(=O)(=O)c1ccc(NC(=O)CCC(=O)c2cccs2)cc1	8.85
O=C1CCC(C(=O)N2CCSCC2)CN1CCc1ccccc1 (centres unmarked)	19.2
O=C(COc1ccc(Cl)cc1Cl)OCC(=O)c1ccc[nH]1	-22.1
CN1CCN(CC(=O)Nc2ccc([N+](=O)[O-])cc2Br)CC1	-70.9
O=S1(=O)CCOC[C@H](Cc2ccccc2)N1Cc1ccc(Cl)cc1	-11.3
CCc1cccc(CC)c1NC(=O)CO/N=C(\N)CC(=O)NC1CCCCC1	15
COc1ccc(NC(=O)Nc2nnc(CC(=O)Nc3ccccc3)s2)cc1	4.42

SMILES	hERG current change (%, negative = inhibition) at 10uM [%]
O=C1CC(C(=O)Nc2ccc(C(=O)O)cc2)C(c2ccccc2)O1 (centres unmarked)	28.3
O=C(NCCN1CCCCC1)Nc1ccc(F)cc1F	-3.39
Cc1ccc(C)c(C(C)NC(=O)c2ccc(Br)o2)c1 (centres unmarked)	14
C=CCNC(=O)COc1cc(C)ccc1C	19
COc1cccc(-c2noc(CCC(=O)NCC3CCCO3)n2)c1 (centres unmarked)	17.4
O=C(NCCN1CCOCC1)c1ccccc1-c1ccccc1	0.439
Cc1ccc(NS(=O)(=O)c2ccc(C(=O)NCC(c3ccco3)N(C)C)cc2)cc1 (centres unmarked)	3.12
O=C(Nc1ccn(Cc2c(F)c(F)cc(F)c2F)n1)c1ccc(COc2ccc(Cl)cc2Cl)o1	7.3
Cc1ccc(C(=O)Nc2nnc(-c3cccs3)s2)cc1C	7.45
Cc1ccnc(NC(=O)c2cccc(S(=O)(=O)N3CCOCC3)c2)c1	-18.9
Cc1ccc(S(=O)(=O)NCC(C)NC(=O)CN2CCOCC2)cc1 (centres unmarked)	26
CCC(=NCCc1ccc(OC)c(OC)c1)c1ccccc1O	14.8
S=c1[nH]nc(-c2ccc3ccccc3n2)n1-c1ccccc1	24.9
C[C@@H](CSc1ccc(Br)cc1)CN1CC[C@H](C(C)(C)C)CCC1=O	7.36
COc1cccc(CN(C)C(=O)C(CCSC)NS(=O)(=O)c2ccc3c(c2)OCCO3)c1OC (centres unmarked)	-16.7
CC(=O)N1CCC(c2c[nH]c3ccccc23)CC1	5.87
COc1cc2nc(N3CCN(C(=O)[C@H]4COc5ccccc5O4)CC3)nc(N)c2cc1OC	-37.7
O=C(N/N=C(\c1ccccc1)c1ccccn1)c1cccc([N+](=O)[O-])c1	-65.6
Cn1cc(C(=O)NC2CCCCCC2)c(=O)c2cc(S(=O)(=O)N3CCCC3)ccc21	-9.15
Cc1cccc(CN(C)CCc2ccccn2)c1	-15.3
